# Assay results from patent US12296006B2, “Anti-LY6H antibodies and antibody drug conjugates” (Bluefin BioMedicine, Inc., priority 2017, dated 2025).
# B1: 23F3_19B2: human anti-LY6H antibody, VH SEQ ID NO: 17, VL SEQ ID NO: 20 (antibody, V domains shown)
# VH: QVQLQESGPGLVKPSGTLSLTCAVSGGSISSSNWWSWVRQPPGKGLEWIGEIYHSGSTNYNPSLKSRVTISVDKSKNQFSLKLSSVTAADTAVYYCARVDILTGGNFDYWGQGTLVTVSS
# VL: [about 100 residues not given here]
# What was measured:
# [1] = test system: H446; assay: Anti-Ly6H antibodies binding to endogenous cell lines by flow cytometry: H446; design: species or system human; key: (−): No binding; (+): Weak binding; (++): Moderate binding; (+++): Strong binding; (++++): Very strong binding; conditions: primary antibodies 1 ug/ml, live cells on ice 30 minutes
# Description: (§1) Staining for flow cytometry was performed in 1× cold PBS with 0.5% BSA. Primary antibodies (1 ug/ml) were incubated with live cells on ice for 30 minutes, after a brief wash, cells were incubated with Alexa Fluro® 488-conjugated anti-human IgG secondary antibody @1:1000 (709-546-149, Jackson ImmunoResearch). Acquisition of the data was performed on a MACSQuant© Flow Cytometers (Miltenyi Biotec) and analyzed with FlowJo software.
# (§2) Fully human antibodies against LY6H were generated by hybridoma procedures. Briefly, H2L2 mice were immunized with either recombinant human Ly6H-ECD or BaF3 cells over-expressing LY6H and boosted with rabbit splenocytes expressing full length human LY6H or with ECD of LY6H recombinant protein. Splenocytes were fused with the mouse myeloma cell line X63-Ag8.653. Clones from H2L2 mice were identified by immunofluorescence (IF) based high content screening (HCS) on 293 cells overexpressing hLY6H, ratLy6H, and parental 293 cells not expressing LY6H, as well as endogenous small cell lung cancer (SCLC) cell line, H446. […] 270 hits were cryopreserved and stored in liquid nitrogen. Approximately 100 clones were selected for molecular cloning. Based on unique CDR3 sequences from the heavy chain variable domain, 10 antibodies from 8 families were chosen and confirmed by flow cytometry (MACSQuant® miltenybiotec.com) on the following cell lines. […]
# [2] = test system: EOL1; assay: Anti-Ly6H antibodies binding to endogenous cell lines by flow cytometry: EOL1; design: species or system human; key: (−): No binding; (+): Weak binding; (++): Moderate binding; (+++): Strong binding; (++++): Very strong binding; conditions: primary antibodies 1 ug/ml, live cells on ice 30 minutes
# Description: as §1, §2
molecule,measurement,setting,value
B1,"binding by flow cytometry, H446",[1],(++++)
same,"binding by flow cytometry, EOL1",[2],(−)
